Laboratory results from the supplement of paper PMC8728848.
The other results are listed elsewhere or left out.

Experiments:
Experiment in all cases: glycan array binding signal (z-score within array); higher = stronger binding
Details in all cases: glycan notation: IUPAC condensed, linker removed
[1] = target: Gal6S(b1-4)Glc
Method in brief: (§1)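 Negative Z-scores can be read as non-binding. The Z-score is calculated within each array and then averaged across arrays of one protein sequence at different concentrations or buffers and across linkers. Arrays, 3228 in all, were curated from the Consortium for Functional Glycomics database and kept only where the protein sequence was available.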

[2] = target: Gal6S(b1-4)Glc6S
Method in brief: as §1

[3] = target: Gal6S(b1-4)GlcNAc
Method in brief: as §1

[4] = target: Gal6S(b1-4)GlcNAc6S
Method in brief: as §1

[5] = target: GalNAc(a1-3)Gal
Method in brief: as §1

[6] = target: GalNAc(a1-3)GalNAc
Method in brief: as §1

[7] = target: GalNAc(b1-3)Gal
Method in brief: as §1

[8] = target: GalNAc(b1-3)Gal(a1-4)Gal(b1-4)GlcNAc
Method in brief: as §1

[9] = target: GalNAc(b1-3)GalNAc
Method in brief: as §1

[10] = target: GalNAc(b1-4)GlcNAc
Method in brief: as §1

[11] = target: Glc(a1-4)Glc
Method in brief: as §1

[12] = target: Glc(a1-6)Glc(a1-6)Glc
Method in brief: as §1

[13] = target: Glc(b1-4)Glc
Method in brief: as §1

[14] = target: Glc(b1-6)Glc
Method in brief: as §1

[15] = target: GlcA(b1-3)Gal
Method in brief: as §1

[16] = target: GlcA(b1-3)GlcNAc
Method in brief: as §1

[17] = target: GlcA(b1-6)Gal
Method in brief: as §1

[18] = target: GlcNAc(a1-3)Gal(b1-4)GlcNAc
Method in brief: as §1

[19] = target: GlcNAc(a1-6)Gal(b1-4)GlcNAc
Method in brief: as §1

[20] = target: GlcNAc(b1-2)Gal(b1-3)GalNAc
Method in brief: as §1

[21] = target: GlcNAc(b1-2)Man(a1-3)[GlcNAc(b1-2)Man(a1-6)]Man(b1-4)GlcNAc(b1-4)GlcNAc
Method in brief: as §1

[22] = target: GlcNAc(b1-3)Gal
Method in brief: as §1

[23] = target: GlcNAc(b1-3)Gal(b1-3)GalNAc
Method in brief: as §1

[24] = target: GlcNAc(b1-3)Gal(b1-4)Glc
Method in brief: as §1

[25] = target: GlcNAc(b1-3)Gal(b1-4)GlcNAc
Method in brief: as §1

[26] = target: GlcNAc(b1-3)Gal(b1-4)GlcNAc(b1-3)Gal(b1-4)GlcNAc
Method in brief: as §1

[27] = target: GlcNAc(b1-3)GalNAc
Method in brief: as §1

[28] = target: GlcNAc(b1-3)Man
Method in brief: as §1

[29] = target: GlcNAc(b1-3)[GlcNAc(b1-4)][GlcNAc(b1-6)]GlcNAc
Method in brief: as §1

[30] = target: GlcNAc(b1-3)[GlcNAc(b1-6)]Gal(b1-4)GlcNAc
Method in brief: as §1

[31] = target: GlcNAc(b1-3)[GlcNAc(b1-6)]GalNAc
Method in brief: as §1

[32] = target: GlcNAc(b1-4)Gal(b1-4)GlcNAc
Method in brief: as §1

[33] = target: GlcNAc(b1-4)GlcNAc
Method in brief: as §1

[34] = target: GlcNAc(b1-4)GlcNAc(b1-4)GlcNAc
Method in brief: as §1

[35] = target: GlcNAc(b1-4)GlcNAc(b1-4)GlcNAc(b1-4)GlcNAc(b1-4)GlcNAc
Method in brief: as §1

[36] = target: GlcNAc(b1-4)GlcNAc(b1-4)GlcNAc(b1-4)GlcNAc(b1-4)GlcNAc(b1-4)GlcNAc
Method in brief: as §1

[37] = target: GlcNAc(b1-4)[GlcNAc(b1-6)]GalNAc
Method in brief: as §1

[38] = target: GlcNAc(b1-6)Gal(b1-4)GlcNAc
Method in brief: as §1

B1: LSECtin (Homo sapiens), Q6UXB4 (protein)
chain: MEQESALRELRERVTQGLAEAGRGREDVRTELFRALEAVRLQNNSCEPCPTSWLSFEGSCYFFSVPKTTWAAAQDHCADASAHLVIVGGLDEQGFLTRNTRGRGYWLGLRAVRHLGKVQGYQWVDGVSLSFSHWNQGEPNDAWGRENCVMMLHTGLWNDAPCDSEKDGWICEKKAQLLTPPSALEPRPLQHVVSWGLLTSLAPGADCQRVFSSSSTAAESQKHLAQHSPVQPSAWALGPPCRPHPNSTHADPT
- glycan array binding signal (z-score) [1]: -0.276
- glycan array binding signal (z-score) [2]: -0.277
- glycan array binding signal (z-score) [3]: -0.285
- glycan array binding signal (z-score) [4]: -0.28
- glycan array binding signal (z-score) [5]: -0.26
- glycan array binding signal (z-score) [6]: -0.295
- glycan array binding signal (z-score) [7]: -0.287
- glycan array binding signal (z-score) [8]: -0.267
- glycan array binding signal (z-score) [9]: 1.04
- glycan array binding signal (z-score) [10]: -0.292
- glycan array binding signal (z-score) [11]: -0.288
- glycan array binding signal (z-score) [12]: -0.277
- glycan array binding signal (z-score) [13]: -0.313
- glycan array binding signal (z-score) [14]: -0.307
- glycan array binding signal (z-score) [15]: -0.307
- glycan array binding signal (z-score) [16]: -0.289
- glycan array binding signal (z-score) [17]: -0.312
- glycan array binding signal (z-score) [18]: -0.19
- glycan array binding signal (z-score) [19]: -0.298
- glycan array binding signal (z-score) [20]: -0.275
- glycan array binding signal (z-score) [21]: 5.09
- glycan array binding signal (z-score) [22]: 0.114
- glycan array binding signal (z-score) [23]: 0.298
- glycan array binding signal (z-score) [24]: 0.098
- glycan array binding signal (z-score) [25]: -0.118
- glycan array binding signal (z-score) [26]: -0.302
- glycan array binding signal (z-score) [27]: 0.65
- glycan array binding signal (z-score) [28]: 0.057
- glycan array binding signal (z-score) [29]: 0.623
- glycan array binding signal (z-score) [30]: -0.093
- glycan array binding signal (z-score) [31]: 0.493
- glycan array binding signal (z-score) [32]: -0.305
- glycan array binding signal (z-score) [33]: -0.001
- glycan array binding signal (z-score) [34]: -0.221
- glycan array binding signal (z-score) [35]: -0.309
- glycan array binding signal (z-score) [36]: -0.304
- glycan array binding signal (z-score) [37]: 0.471
- glycan array binding signal (z-score) [38]: -0.302
